Measured values from PubChem BioAssay AID1458 (National Center for Advancing Translational Sciences (NCATS), 2008).
Screen size: about 210,000 compounds; about 5,900 (2.8%) were called active. The shares of active, inactive and inconclusive entries below differ from those in the screen. Calls follow the shape of the dose curve; as a rule, active = well fitted activation curve with a large enough effect; inconclusive = small, poorly fitted or top-dose-only effect; inactive = no such curve, though single readings can be large or run the other way. A potency beside an inconclusive call is a rough fit, not a confirmed value.

experiment: qHTS Assay for Enhancers of SMN2 Splice Variant Expression; conditions: HEK293 SMN2-luciferase splicing reporter, luminescence, 30-36 h; activity change, positive = activation: at 46.1 µM (top of the series); also: nearly all actives have a fitted effect of over 55% in size; as to activity change, positive = activation: % of control where 0% means no effect
How it was run: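 HEK293 cells carry an SMN2 […]–luciferase reporter in which exon 7 inclusion puts luciferase in frame. Cells were plated 10-12 h before compound addition, then incubated 30-36 h at 37C. ONE-Glo luminescence was read; sodium butyrate at 4.5 mM final served as control.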
Potency is read from the fitted curve at half-maximal effect; tags tell the direction and shape of the fitted curve.

Row | SMILES | activity change, positive = activation | Potency
1 | CCn1c(CC(=O)Nc2ccc(C)cc2)n[nH]c1=S | inactive: 0.474% | 
2 | CCCCNC(=O)CCn1c(=O)c2ccccc2n(Cc2ccccc2C#N)c1=O | inactive: -8.17% | 
3 | COc1cc(OC)c(-c2nnc(-c3ccc(OC)c(OC)c3OC)o2)cc1OC |  | inconclusive: 11.2 µM [activator, single point]
4 | COc1cccc([C@@H]2Oc3ccc(OC)cc3C(=O)[C@H]2OC(=O)NCc2ccco2)c1 |  | inconclusive: 35.5 µM [activator, single point]
5 | O=C(O)c1ccccc1-c1csc(-c2ccccc2)n1 |  | inconclusive: 35.5 µM [activator, single point]
6 | CC(=O)Nc1ccc(NC(=O)CCNS(=O)(=O)c2cccc3nsnc23)cc1 |  | inconclusive: 17.8 µM [activator, partial curve, poor fit]
7 | Cc1ccccc1Nc1nnc(SCC(=O)NC(=O)Nc2ccc3c(c2)OCCO3)s1 |  | inconclusive: 11.2 µM [activator, partial curve, poor fit]
8 | O=C(NCCc1ccccc1)c1cccnc1 |  | inconclusive: 14.1 µM [activator, single point]
9 | Cc1cc(C(=O)COC(=O)c2csc3c2CCCC3)c(C)n1C | inactive: -20.3% | 
10 | Cc1ccc(-c2csc(NC(=O)c3ccc(C)o3)n2)cc1 | inactive: -3.64% | 
11 | CCCCNC(=O)CSc1nc2nc(C)c(Cc3ccccc3C)c(C)n2n1 | inactive: 8.03% | 
12 | O=[N+]([O-])c1ccc(F)cc1OCc1nc(-c2cccs2)no1 |  | active: 15.8 µM
13 | CCN(CC)C(=O)C(=O)N/N=C/c1ccc(C(=O)O)cc1 | inactive: 12.4% | 
14 | COCc1cc(C)nc2sc3c(c12)NC(c1ccc(O)cc1)N(c1ccc(OC)cc1)C3=O (stereo not given) |  | inconclusive: 35.5 µM [activator, single point]
15 | O=C(NC1=NCCS1)c1sc2cc(Cl)cc(Cl)c2c1Cl | inactive: -3.05% | 
16 | O=C(COC(=O)C1CC1)Nc1ccc(N=Nc2ccccc2)cc1 |  | active: 6.31 µM
17 | CCCn1c(=O)c2ccccc2n2c(SCN3C(=O)c4ccccc4C3=O)nnc12 |  | inconclusive: 2 µM [activator, partial curve, poor fit]
18 | CC(C)c1nc2sc3c(c2c(=O)o1)CCCC3 | inactive: -14.9% | 
19 | COc1cc(S(=O)(=O)Nc2ccccc2)ccc1N=Cc1c(C)[nH]n(-c2ccc(C)cc2)c1=O |  | inconclusive: 28.2 µM [activator, single point]
20 | C=CCn1c(C)cc(C(=O)COc2nncc3ccccc23)c1C |  | inconclusive: 12.6 µM [activator, single point]
21 | CC(C)c1ccc(NC(=O)c2csnn2)cc1 |  | inconclusive: 0.251 µM [activator, full curve, poor fit]
22 | O=c1[nH]nc(SCc2nc3ccccc3s2)n1C1CC1 |  | inconclusive: 14.1 µM [activator, single point]
23 | CCOc1cc(/C=N/NC(=O)CN(CCc2ccccc2)S(=O)(=O)c2ccc(NC(C)=O)cc2)ccc1O | inactive: -11.9% [at 1.84 µM] | 
24 | O=S(=O)(Nc1ccc(S(=O)(=O)Nc2nccs2)cc1)c1ccc2c(c1)OCCO2 |  | inconclusive: 0.251 µM [activator, partial curve]
25 | CCc1nnc(NC(=O)C2(C)COC(c3ccc(OC)cc3)OC2)s1 (stereo not given) | inconclusive: 39.1% [activator] | 

Row | SMILES | activity change, positive = activation | Potency
26 | CN(C)c1ccc(N/C=C/C(=O)c2ccccc2)cc1 |  | active: 3.16 µM
27 | COc1ccc(C(=O)n2nc(-c3ccco3)nc2NCc2cccs2)cc1 |  | inconclusive: 31.6 µM [activator, single point]
28 | O=C(Cc1ccccc1)NCCc1cccc(Cl)c1 |  | inconclusive: 0.282 µM [activator, full curve]
29 | Cc1nc(NCc2ccccc2)sc1C(=O)Nc1ccccc1 |  | inconclusive: 14.1 µM [activator, partial curve, poor fit]
30 | CCOc1ccccc1NC(=O)NCCn1c(=O)oc2ccc(C)cc21 | inactive: -5.49% | 
31 | Cc1cccc(NC(=O)/C=C/c2ccc(Cl)cc2)n1 |  | active: 3.55 µM
32 | COc1cccc(C(=O)Nc2ccc(NC(C)=O)cn2)c1 |  | inconclusive: 22.4 µM [activator, single point]
33 | Cc1cc(C(=O)N/N=C\C(Br)=C\c2ccccc2)c(C)o1 |  | inconclusive: 35.5 µM [activator, partial curve, poor fit]
34 | C=CCSc1nncn1/N=C/c1ccc(OC)cc1 |  | active: 12.6 µM
35 | CN(C)c1ccnc2sc(C(=O)c3ccccc3)c(N)c12 |  | active: 14.1 µM
36 | Cc1ccc(NC(=O)/C(C#N)=C/c2cc(C)n(-c3ccc(F)cc3)c2C)cc1C | inactive: 16.5% | 
37 | Cc1ccc(NC(=O)CN2CCN(CCN=CC3=C(O)CC(c4ccc(C)cc4)CC3=O)CC2)cc1 (stereo not given) | inactive: -12.4% | 
38 | O=C(c1ccc2c(c1)N(Cc1ccccc1F)C(=O)c1ccccc1S2=O)N1CCN(c2ccccc2)CC1 (stereo not given) |  | inconclusive: 25.1 µM [activator, single point]
39 | Oc1c(C=NCc2ccncc2)sc2ccccc12 |  | inconclusive: 7.94 µM [activator, partial curve, poor fit]
40 | COC(=O)C1C(=O)c2c([nH]c(C(=O)OC3CCCCCC3)c2C)CC1C (stereo not given) |  | inconclusive: 31.6 µM [activator, single point]
41 | COc1cc(C)c2c(=O)cc(-c3ccccc3)oc2c1 |  | active: 11.2 µM
42 | O=C(NCc1cccc(Cl)c1)C(=O)Nc1ccc2nc3n(c(=O)c2c1)CCCCC3 |  | inconclusive: 1.58 µM [activator, full curve]
43 | Cn1c(N=Nc2ccccc2)nc2ccccc21 |  | active: 0.631 µM
44 | Cc1ccc2sc(-c3ccc(NC(=O)CCN4C(=O)c5ccccc5C4=O)cc3)nc2c1 |  | active: 0.398 µM
45 | CCOC(=O)c1cnc2cc(-c3ccc(Cl)cc3)nn2c1N |  | inconclusive: 0.0089 µM [activator, full curve, poor fit]
46 | Cc1ccc(-c2noc(CN3C(C)CCCC3C)n2)cc1 (stereo not given) | inactive: -5.9% | 
47 | COC(=O)c1ccc(CSc2nnc(CNC(=O)c3cccs3)o2)o1 |  | inconclusive: 2.82 µM [activator, single point]
48 | COc1cc(/C=N/NC(=S)NCc2ccco2)cc(OC)c1OC |  | active: 35.5 µM
49 | Cc1cc2cc(C=C(C#N)C#N)c(Cl)nc2cc1C |  | inconclusive: 12.6 µM [activator, partial curve, poor fit]
50 | O=C(NC(=S)Nc1nc(-c2cccc3ccccc23)cs1)c1cc2ccccc2o1 | inconclusive: 30.7% [activator] | 

Row | SMILES | activity change, positive = activation | Potency
51 | CC(=O)N1CC2(C)CN(C(C)=O)CC(C)(C1)C2O (stereo not given) |  | inconclusive: 35.5 µM [activator, partial curve, poor fit]
52 | CCOc1ccc(C(=O)Nc2ccccc2C(=O)O)cc1 |  | active: 8.91 µM
53 | CC(=O)Cc1nsc(NC(=O)c2ccc(-c3cc(C(F)(F)F)ccc3Cl)o2)n1 |  | inconclusive: 2 µM [activator, partial curve]
54 | OCCN(/C=N/c1nc(-c2ccc(Br)cc2)cs1)CCO | inactive: 13.6% | 
55 | O=C(Nc1ccc2c(c1)CCC2)c1ccc(Br)s1 |  | active: 5.62 µM
56 | CCOC(=O)C(=Cc1ccc(-n2cncn2)cc1)C(=O)OCC | inactive: -56% | 
57 | O=C(NC(C(=O)c1ccccc1)N1CCCCC1)c1ccccc1 (stereo not given) |  | inconclusive: 31.6 µM [activator, single point]
58 | c1ccc(-c2ccc(-c3nc(-c4cccnc4)no3)cc2)cc1 |  | active: 12.6 µM
59 | Cc1nnc2ccc(N3CCCC3)nn12 |  | inconclusive: 0.0316 µM [activator, full curve, poor fit]
60 | Cc1ccc(N(C(=O)CCC(=O)Nc2cc(C)on2)C(C(=O)NC2CCCC2)c2ccncc2)cc1 (stereo not given) |  | inconclusive: 20 µM [activator, single point]
61 | CCc1ccc(NC(=O)Nc2cccc(OC)c2)cc1 |  | active: 14.1 µM
62 | CCS(=O)(=O)c1ccc2oc(SCC(=O)Nc3ccc(OC)cc3)nc2c1 |  | inconclusive: 0.141 µM [activator, full curve, poor fit]
63 | CCn1cc(C(=O)N2CCN(c3cc(C)ccc3C)CC2)c(=O)c2cc(S(=O)(=O)N(C)C3CCCCC3)ccc21 | inactive: -12.9% | 
64 | Cn1c(=O)cc(SCC(=O)NCc2cccnc2)c2ccccc21 |  | inconclusive: 8.91 µM [activator, partial curve, poor fit]
65 | CCOC(=O)c1c(NC(=O)OC)sc(C(=O)N(CC)CC)c1C |  | inconclusive: 0.158 µM [activator, full curve]
66 | Cc1cc(-c2ccccc2)nc(N2CCC(C(=O)NCc3ccccc3Cl)CC2)n1 |  | active: 28.2 µM
67 | CCCCNC(=S)NNC(=O)c1csc(C)c1CC |  | inconclusive: 5.62 µM [activator, full curve]
68 | Cc1c(CNC(C)CCc2ccccc2)c(C(=O)O)c(C)n1Cc1ccc(F)cc1Cl (stereo not given) |  | inconclusive: 12.6 µM [activator, single point]
69 | CCOC(=O)c1ccc(NC(=O)CC2SCCNC2=O)cc1 (stereo not given) |  | inconclusive: 35.5 µM [activator, single point]
70 | COC(=O)c1ccc(/C=C/c2ccc3cccc(OC(C)=O)c3n2)cc1 |  | active: 15.8 µM
71 | COC(=O)c1sc(NC(=O)CSc2nnc(C(C)C)n2C)nc1C | inactive: 1.93% | 
72 | CC(=O)Oc1ccccc1-c1nc(C)nc(N(C)C(C)=O)n1 |  | inconclusive: 11.2 µM [activator, partial curve, poor fit]
73 | Cc1cc(NC(=O)c2sc(Nc3ccc(F)cc3)nc2N)no1 | inactive: 24.2% | 
74 | COCCCNC(=O)c1sc2nc(C)c(C(=O)Nc3ccc(C)cc3C)c(-c3ccc(Cl)cc3)c2c1N | inactive: -7.38% | 
75 | COc1ccc(NC(=O)c2c(-c3ccccc3)c(-c3ccccc3)nn(C)c2=O)c(OC)c1 | inactive: 1.3% | 
